Source: PubChem BioAssay AID1745845 (National Center for Advancing Translational Sciences (NCATS), 2022)
About 2,600 (0.72%) of roughly 360,000 compounds were called active. This list was built around the results that the source calls inconclusive (neither active nor inactive); the mix of calls is not that of the screen. The call rests on the fitted dose curve; in most records, active means well fitted inhibition curve with a large enough effect; inconclusive means small, poorly fitted or top-dose-only effect; inactive means no such curve, though single readings can be large or run the other way. Where the call is inconclusive, the potency comes from a doubtful curve fit.

test: Primary qHTS for Inhibitors of ATXN expression; settings: HEK-293 ATXN2-luciferase reporter, luminescence, 24 h; activity change, negative = inhibition: at 57 µM (top of the series); further: nearly all actives have a fitted effect of over 55% in size
How it was run: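 qHTS (up to 57 uM final) was run with 24 h compound exposure of reporter cells at 37 °C. Each well was multiplexed: SteadyGlo luminescence measured ATXN2-luciferase expression after a fluorogenic Gly-Phe-AFC viability readout (25 uM final).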
On the % scale 0 is the no-effect control and ±100 the full control effect; potency means the concentration at half of the fitted maximal effect; tags describe the fitted curve by direction and shape.

| SMILES | Potency | activity change, negative = inhibition |
| --- | --- | --- |
| O=C(Nc1cccnc1)c1cc(-c2ccco2)on1 | inconclusive: 39.8 µM [inhibitor, single point] | – |
| Cc1c(C(=O)NCCC2=CCCCC2)oc2ccc(S(=O)(=O)N3CCC4(CC3)OCCO4)cc12 | inconclusive: 20 µM [inhibitor, partial curve, poor fit] | – |
| CC(C)c1ccccc1NC(=O)CN1C(=O)c2cccc3cccc1c23 | – | inactive: -5.22% |
| CC12CCC(C(=O)N(CSC(=S)N/N=C\c3ccccc3O)C1=O)C2(C)C (configuration not stated) | inconclusive: 17.8 µM [inhibitor, partial curve, poor fit] | – |
| COc1ccccc1C(=O)N1CCN(c2nc3cc(C)c(C)cc3cc2C#N)CC1 | inconclusive: 39.8 µM [inhibitor, partial curve, poor fit] | – |
| COc1ccc(CCNC(=O)CC(c2ccccc2)c2cc(C)ccc2O)cc1OC (configuration not stated) | inconclusive: 20 µM [inhibitor, partial curve, poor fit] | – |
| C=CCC[C@H](Cc1ccc(F)cc1)C(=O)OC[C@@H](NC(=O)[C@@H](CC=C)CC(=O)N[C@H](CO)Cc1ccccc1)C(C)(C)C | inconclusive: 39.8 µM [inhibitor, single point] | – |
| COC(=O)c1ccc(CNC(=O)COC(=O)/C=C/c2ccc(O)c(OC)c2)cc1 | – | inactive: 2.86% |
| Cc1ccc(CN2CCSc3ccc(C(=O)NCCCN4CCOCC4)cc32)cc1 | inconclusive: 28.2 µM [inhibitor, partial curve, poor fit] | – |
| O=C1COc2cc(S(=O)(=O)CCC(=O)N3CCN(c4cccc(Cl)c4)CC3)c(Cl)cc2N1 | inconclusive: 39.8 µM [inhibitor, single point] | – |
| CCCn1nc(C(=O)OCC(=O)c2ccccc2)c2ccccc2c1=O | – | inactive: -11.3% |
| COc1ccc(C(=O)COC(=O)c2ccc(NC(=O)c3ccccc3)cc2)cc1 | inconclusive: 31.6 µM [inhibitor, single point] | – |
| Cc1ccc(S(=O)(=O)N(C)c2ccc3c(c2)C(=O)c2ccccc2-3)cc1 | – | inactive: 13% |
| CCc1ccc(NC(=O)c2cc3c(=O)n(Cc4cccs4)ccc3nc2C)cc1 | inconclusive: 5.62 µM [inhibitor, partial curve, poor fit] | – |
| COc1ccc(Cl)cc1NC(=O)CN(c1cc(C)cc(C)c1)S(=O)(=O)c1c(C)n[nH]c1C | inconclusive: 35.5 µM [inhibitor, single point] | – |
| COc1cccc(CN(C)C(=O)c2ccc(Oc3ccccc3)cc2)c1OC | inconclusive: 15.8 µM [inhibitor, partial curve, poor fit] | – |
| Fc1ccc(Nc2nnc(C(F)(F)F)s2)cc1Cl | inconclusive: 39.8 µM [inhibitor, partial curve, poor fit] | – |
| CCc1c(C)c(C#N)c2nc3ccccc3n2c1NC | – | inactive: 7.68% |
| Cc1cc(C)c2nc(N3CCN(C)CC3)c(C#N)cc2c1 | – | inactive: -3.39% |
| COC(=O)[C@@]1(Cc2ccc(OC)cc2)[C@@H]2C(=CC(=O)[C@H]2CC(=O)C(=O)N(C)C)CN1C(=O)c1ccccc1 | inconclusive: 25.1 µM [inhibitor, single point] | – |
| C[C@@H](NC(=O)c1[nH]cnc1C(=O)Nc1ccccc1)c1ccccc1 | inconclusive: 31.6 µM [inhibitor, single point] | – |

| SMILES | Potency | activity change, negative = inhibition |
| --- | --- | --- |
| CN(C)S(=O)(=O)c1cc(NC(=O)CSc2nn(-c3ccc(Cl)cc3)c(=S)s2)ccc1Cl | inconclusive: 31.6 µM [inhibitor, single point] | – |
| O=C(COc1cc2oc(=O)c3c(c2cc1Cl)CCCC3)NCC1CCC(C(=O)O)CC1 (configuration not stated) | – | inactive: 8.61% |
| CC1(C(=O)NCc2ccc3c(c2)OCO3)CCN1Cc1csc2ccccc12 (configuration not stated) | inconclusive: 39.8 µM [inhibitor, partial curve, poor fit] | – |
| CCOc1ccc(N(CC(=O)Nc2ccccc2C)S(=O)(=O)c2c(C)noc2C)cc1 | – | inactive: -13.2% |
| NC(=O)CSc1nnc(-c2cnccn2)n1Cc1ccco1 | inconclusive: 1.26 µM [inhibitor, partial curve, poor fit] | – |
| COc1ccc(C(=O)Nc2cccc(/C(C)=N/NC(=O)c3ccc([N+](=O)[O-])c(C)c3)c2)cc1OC | inconclusive: 17.8 µM [inhibitor, partial curve, poor fit] | – |
| O=C(CCN1C(=O)C2CCCCC2C1=O)Nc1ccc(Br)cc1F (configuration not stated) | inconclusive: 0.708 µM [inhibitor, partial curve, poor fit] | – |
| CCCCC(=O)N1C/C=C\C(c2ccc(OC)cc2)N(Cc2ccc(F)cc2)C(=O)[C@H]1Cc1ccccc1 (some centres not stated) | inconclusive: 25.1 µM [inhibitor, partial curve, poor fit] | – |
| COc1ccc(NC(=O)c2cc(-c3cc(Cl)ccc3OC)n[nH]2)c(OC)c1 | inconclusive: 35.5 µM [inhibitor, single point] | – |
| OC[C@@H]1CN(Cc2ccc(-c3ccccc3)cc2)C[C@H](n2cnc3c(NCc4ccco4)ncnc32)O1 | inconclusive: 28.2 µM [inhibitor, single point] | – |
| COc1ccc(-n2nc(C(=O)NCC(=O)NCCCN3CC(C)CC(C)C3)c3ccccc3c2=O)cc1Cl (configuration not stated) | – | inconclusive: -44.1% [inhibitor] |
| Fc1ccc(CN2CCC(Cc3ccccc3)CC2)cc1F | – | inactive: -22.2% |
| CCc1ccc(-c2cc(C(F)(F)F)n3nc(C(=O)Nc4c(C)nn(Cc5ccc(F)cc5)c4C)cc3n2)s1 | – | inactive: -11.1% |
| C=CCn1c(COc2ccccc2)nnc1SC(C)C(=O)N/N=C/c1cc(Cl)ccc1O (configuration not stated) | active: 14.1 µM | – |
| Cc1ccc(N2C(=O)CSC2c2cccnc2)c(Cl)c1 (configuration not stated) | – | inactive: 5.14% |
| O=C(c1ccc(F)c(F)c1Nc1ccc(I)cc1F)N1CC(O)([C@H]2CCCCN2)C1 | inconclusive: 43.2 µM [inhibitor, single point] | – |
| CCc1ccc2oc(-c3ccc(OC)cc3)cc(=Nc3c(C)n(C)n(-c4ccccc4)c3=O)c2c1 | inconclusive: 37.7 µM [inhibitor, single point] | – |
| O=C(NCc1ccc(F)cc1)c1cc(C2CCCCN2S(=O)(=O)c2ccc(F)cc2F)on1 (configuration not stated) | – | inactive: -9.53% |
| CC(C)=CCC/C(C)=C/CNC(=O)C[C@H]1C[C@H](C(=O)N2CCCCC2)[C@@]2(C)c3[nH]c4cc(CCC(=O)N(C)C)ccc4c3CCN2C1=O | inconclusive: 31.6 µM [inhibitor, single point] | – |
| COc1cccc(NC(=O)CSc2nc3ccc(NC(=O)c4ccco4)cc3s2)c1 | inconclusive: 31.6 µM [inhibitor, single point] | – |
| Cc1cc(OCC(=O)N2CCC(C(N)=O)CC2)c2c(C)c(C)c(=O)oc2c1 | – | inactive: -10.7% |

| SMILES | Potency | activity change, negative = inhibition |
| --- | --- | --- |
| Cc1sc(NC(=O)CN2CCCC2)nc1-c1ccc2c(c1)CCN2C(=O)c1cccc(F)c1 | inconclusive: 35.5 µM [inhibitor, partial curve, poor fit] | – |
| Cc1cccc(N2CCN(C(=O)c3cc4c(=O)n(C)c5ccccc5c4n3C)CC2C)c1 (configuration not stated) | inconclusive: 31.6 µM [inhibitor, single point] | – |
| O=[N+]([O-])c1ccc2nc(/C=C/c3ccc(Cl)cc3)[nH]c2c1 | inconclusive: 39.8 µM [inhibitor, single point] | – |
| COc1ccc(NC(=O)c2c(C(=O)Nc3ccccc3)sc3nc(C)cc(=O)n23)cc1 | inconclusive: 28.2 µM [inhibitor, single point] | – |
| CCC(=O)Nc1cccc(C(=O)/C=C/c2ccc(F)cc2)c1 | inconclusive: 39.8 µM [inhibitor, single point] | – |
| Cc1c(C(=O)Nc2ccc(-c3nnc4n3CCCCC4)cc2)oc2c1ccc1ccccc12 | inconclusive: 37.7 µM [inhibitor, partial curve, poor fit] | – |
| Cc1ccc(CN2C(=O)C(Cc3ccccc3)Nc3ncnc(N4CCN(c5ccccc5)CC4)c32)cc1 (configuration not stated) | – | inactive: 1.76% |
| CN(CCOCCOc1ccc(Cl)cc1Br)Cc1ccccc1 | – | inactive: -12.3% |
| COc1c(C)cc(S(=O)(=O)Nc2cccc(-c3ccc(N4CCOCC4)nn3)c2)c(C)c1C | inconclusive: 39.8 µM [inhibitor, single point] | – |
| Cc1sc2nc(SCC(=O)NCc3ccco3)n(CCc3ccccc3)c(=O)c2c1C | inconclusive: 22.4 µM [inhibitor, single point] | – |
| CCN(c1ccccc1)S(=O)(=O)c1ccc2[nH]cc(C(=O)NC3CCCCC3)c(=O)c2c1 | inconclusive: 39.8 µM [inhibitor, single point] | – |
| Cc1c(Cl)cccc1NC(=O)CC(c1cccs1)N1Cc2ccccc2C1=O (configuration not stated) | – | inactive: -30.2% |
| CC(C)c1ccc2c(c1)CCC1C(C)(CN)CCCC21C (configuration not stated) | active: 35.5 µM | – |
| CCCCn1c(=O)[nH]c(=O)c2c1nc(-c1ccc(OC)c(Br)c1)n2CC(C)C | inconclusive: 39.8 µM [inhibitor, single point] | – |
| CCOC(=O)C1CCN(c2c(C(=O)c3ccc(OCC)cc3)cnc3ccc(OC)cc23)CC1 | inconclusive: 35.5 µM [inhibitor, single point] | – |
| CC(C)=CCC12Oc3cc(O)ccc3C1(O)Oc1cc3c(c(O)c1C2=O)C=CC(C)(C)O3 (configuration not stated) | inconclusive: 35.5 µM [inhibitor, single point] | – |
| COc1ccc(C2CC(c3ccccc3)=NN2C(=O)COC(=O)C2CC2)cc1 (configuration not stated) | – | inactive: 0.104% |
| CCc1nn2c(-c3ccccc3OC)ccnc2c1-c1ccc(F)cc1 | inconclusive: 28.2 µM [inhibitor, single point] | – |
| COCCN1C=C(C(=O)OC)C(c2cc3c(cc2Br)OCO3)C(C(=O)OC)=C1 | – | inactive: -2.93% |
| CN(C)S(=O)(=O)c1cccc(N2C(=O)CC3(CCCCC3)CC2=O)c1 | inconclusive: 11.9 µM [inhibitor, single point] | – |
